{"source": "the supplement of paper PMC8728848", "binders": {"B1": {"name": "PX9961A-pdi-456-24-456 (Parabacteroides distasonis) (protein)", "chain": "KTSSTQLPTIDAISSVADLTNAVNGVYEQQATEVGSYGAEFTLLADLRSGDFQSISTVNHAGPMYRYQTGKNDEMVYSFYKLFYNSLARLNNVLAAAENLEGADVDILKGELYAMRALYHFDLARVFAKLPSTTDMNDLGIVLSTEVYPTDYIGTRATLQQTYDQILKDIETALPLLSKDKQTGHINYWGALAIRARAYLYLEKNKEALADCKEIIASSPYKLYTRDEYIGAWDKEGTNEAIFEILVTPNYNAQRNSIGYFTHASGYGECAATESFLEELAKHPGDIRTELFAKETDNGYDGTYPQKYKGRDGQIYVNNPKVVRLSEVYLIAAEAALKAGDTSAAAGYMNTLRKNRIENYTDVASITLDDILLERRLELFTEGHTAWDAWRNGKSVNNKFVGEVKPGDYRTIMAIPIGEITVSRGQLIQNPGY"}}, "experiment_in_all_cases": "glycan array binding signal (z-score within array); higher = stronger binding", "conditions_in_all_cases": "glycan notation: IUPAC condensed, linker removed", "key": {"Gal(a1-6)Glc": {"biological_target": "Gal(a1-6)Glc", "outline": "(§1)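 Negative Z-scores can be read as non-binding. The Z-score is calculated within each array and then averaged across arrays of one protein sequence at different concentrations or buffers and across linkers. Arrays, 3228 in all, were curated from the Consortium for Functional Glycomics database and kept only where the protein sequence was available.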"}, "Gal(b1-2)Gal": {"biological_target": "Gal(b1-2)Gal", "outline": "as §1"}, "Gal(b1-3)Gal": {"biological_target": "Gal(b1-3)Gal", "outline": "as §1"}, "Gal(b1-3)Gal(b1-4)GlcNAc": {"biological_target": "Gal(b1-3)Gal(b1-4)GlcNAc", "outline": "as §1"}, "Gal(b1-3)GalNAc": {"biological_target": "Gal(b1-3)GalNAc", "outline": "as §1"}, "[1]": {"biological_target": "Gal(b1-3)GalNAc(a1-3)[Fuc(a1-2)]Gal(b1-4)Glc", "outline": "as §1"}, "[2]": {"biological_target": "Gal(b1-3)GalNAc(a1-3)[Fuc(a1-2)]Gal(b1-4)GlcNAc", "outline": "as §1"}, "Gal(b1-3)GalNAc(b1-3)Gal": {"biological_target": "Gal(b1-3)GalNAc(b1-3)Gal", "outline": "as §1"}, "[3]": {"biological_target": "Gal(b1-3)GalNAc(b1-3)Gal(a1-4)Gal(b1-4)Glc", "outline": "as §1"}, "[4]": {"biological_target": "Gal(b1-3)GalNAc(b1-4)Gal(b1-4)Glc", "outline": "as §1"}, "[5]": {"biological_target": "Gal(b1-3)GalNAc(b1-4)[Neu5Ac(a2-3)]Gal(b1-4)Glc", "outline": "as §1"}, "Gal(b1-3)GlcNAc": {"biological_target": "Gal(b1-3)GlcNAc", "outline": "as §1"}, "[6]": {"biological_target": "Gal(b1-3)GlcNAc(a1-3)Gal(b1-4)GlcNAc", "outline": "as §1"}, "[7]": {"biological_target": "Gal(b1-3)GlcNAc(a1-6)Gal(b1-4)GlcNAc", "outline": "as §1"}, "Gal(b1-3)GlcNAc(b1-2)Man": {"biological_target": "Gal(b1-3)GlcNAc(b1-2)Man", "outline": "as §1"}, "[8]": {"biological_target": "Gal(b1-3)GlcNAc(b1-2)Man(a1-3)[Gal(b1-3)GlcNAc(b1-2)Man(a1-6)]Man(b1-4)GlcNAc(b1-4)GlcNAc", "outline": "as §1"}, "[9]": {"biological_target": "Gal(b1-3)GlcNAc(b1-2)Man(a1-3)[Gal(b1-3)GlcNAc(b1-2)Man(a1-6)]Man(b1-4)GlcNAc(b1-4)[Fuc(a1-6)]GlcNAc", "outline": "as §1"}, "[10]": {"biological_target": "Gal(b1-3)GlcNAc(b1-2)Man(a1-3)[GlcNAc(b1-4)][Gal(b1-3)GlcNAc(b1-2)Man(a1-6)]Man(b1-4)GlcNAc(b1-4)GlcNAc", "outline": "as §1"}, "[11]": {"biological_target": "Gal(b1-3)GlcNAc(b1-2)[Gal(b1-3)GlcNAc(b1-6)]Man(a1-6)[Gal(b1-3)GlcNAc(b1-2)Man(a1-3)]Man(b1-4)GlcNAc(b1-4)GlcNAc", "outline": "as §1"}, "[12]": {"biological_target": "Gal(b1-3)GlcNAc(b1-3)Gal(b1-3)GlcNAc", "outline": "as §1"}, "[13]": {"biological_target": "Gal(b1-3)GlcNAc(b1-3)Gal(b1-4)Glc", "outline": "as §1"}, "[14]": {"biological_target": "Gal(b1-3)GlcNAc(b1-3)Gal(b1-4)GlcNAc", "outline": "as §1"}, "[15]": {"biological_target": "Gal(b1-3)GlcNAc(b1-3)Gal(b1-4)GlcNAc(b1-2)Man(a1-3)[Gal(b1-3)GlcNAc(b1-3)Gal(b1-4)GlcNAc(b1-2)Man(a1-6)]Man(b1-4)GlcNAc(b1-4)GlcNAc", "outline": "as §1"}, "[16]": {"biological_target": "Gal(b1-3)GlcNAc(b1-3)Gal(b1-4)GlcNAc(b1-2)[Gal(b1-3)GlcNAc(b1-3)Gal(b1-4)GlcNAc(b1-6)]Man(a1-6)[Gal(b1-3)GlcNAc(b1-3)Gal(b1-4)GlcNAc(b1-2)Man(a1-3)]Man(b1-4)GlcNAc(b1-4)[Fuc(a1-6)]GlcNAc", "outline": "as §1"}, "[17]": {"biological_target": "Gal(b1-3)GlcNAc(b1-3)Gal(b1-4)GlcNAc(b1-3)Gal(b1-4)GlcNAc(b1-2)[Gal(b1-3)GlcNAc(b1-3)Gal(b1-4)GlcNAc(b1-3)Gal(b1-4)GlcNAc(b1-6)]Man(a1-6)[Gal(b1-3)GlcNAc(b1-3)Gal(b1-4)GlcNAc(b1-3)Gal(b1-4)GlcNAc(b1-2)Man(a1-3)]Man(b1-4)GlcNAc(b1-4)[Fuc(a1-6)]GlcNAc", "outline": "as §1"}, "[18]": {"biological_target": "Gal(b1-3)GlcNAc(b1-3)Gal(b1-4)GlcNAc(b1-6)[Gal(b1-3)GlcNAc(b1-3)]Gal(b1-4)Glc", "outline": "as §1"}, "[19]": {"biological_target": "Gal(b1-3)GlcNAc(b1-3)Gal(b1-4)[Fuc(a1-3)]GlcNAc", "outline": "as §1"}, "[20]": {"biological_target": "Gal(b1-3)GlcNAc(b1-3)Gal(b1-4)[Fuc(a1-3)]GlcNAc(b1-6)[Gal(b1-3)GlcNAc(b1-3)]Gal(b1-4)Glc", "outline": "as §1"}, "[21]": {"biological_target": "Gal(b1-3)GlcNAc(b1-3)GalNAc", "outline": "as §1"}, "[22]": {"biological_target": "Gal(b1-3)GlcNAc(b1-6)Gal(b1-4)GlcNAc", "outline": "as §1"}, "[23]": {"biological_target": "Gal(b1-3)GlcNAc(b1-6)GalNAc", "outline": "as §1"}, "[24]": {"biological_target": "Gal(b1-3)GlcNAc(b1-6)[Gal(b1-3)]GalNAc", "outline": "as §1"}, "Gal(b1-3)GlcNAc6S": {"biological_target": "Gal(b1-3)GlcNAc6S", "outline": "as §1"}, "[25]": {"biological_target": "Gal(b1-3)[Fuc(a1-4)]GlcNAc", "outline": "as §1"}, "[26]": {"biological_target": "Gal(b1-3)[Fuc(a1-4)]GlcNAc(b1-2)Man", "outline": "as §1"}, "[27]": {"biological_target": "Gal(b1-3)[Fuc(a1-4)]GlcNAc(b1-2)Man(a1-3)[Gal(b1-3)[Fuc(a1-4)]GlcNAc(b1-2)Man(a1-6)]Man(b1-4)GlcNAc(b1-4)[Fuc(a1-6)]GlcNAc", "outline": "as §1"}, "[28]": {"biological_target": "Gal(b1-3)[Fuc(a1-4)]GlcNAc(b1-3)Gal(b1-3)[Fuc(a1-4)]GlcNAc", "outline": "as §1"}}, "note": "The list shows a part of the results.", "data": [{"binder": "B1", "values": [{"measurement": "glycan array binding signal (z-score)", "setting": "Gal(a1-6)Glc", "value": -0.23}, {"measurement": "glycan array binding signal (z-score)", "setting": "Gal(b1-2)Gal", "value": -0.248}, {"measurement": "glycan array binding signal (z-score)", "setting": "Gal(b1-3)Gal", "value": -0.086}, {"measurement": "glycan array binding signal (z-score)", "setting": "Gal(b1-3)Gal(b1-4)GlcNAc", "value": -0.049}, {"measurement": "glycan array binding signal (z-score)", "setting": "Gal(b1-3)GalNAc", "value": 0.228}, {"measurement": "glycan array binding signal (z-score)", "setting": "[1]", "value": -0.111}, {"measurement": "glycan array binding signal (z-score)", "setting": "[2]", "value": -0.533}, {"measurement": "glycan array binding signal (z-score)", "setting": "Gal(b1-3)GalNAc(b1-3)Gal", "value": 0.253}, {"measurement": "glycan array binding signal (z-score)", "setting": "[3]", "value": 0.384}, {"measurement": "glycan array binding signal (z-score)", "setting": "[4]", "value": 0.652}, {"measurement": "glycan array binding signal (z-score)", "setting": "[5]", "value": -0.081}, {"measurement": "glycan array binding signal (z-score)", "setting": "Gal(b1-3)GlcNAc", "value": -0.255}, {"measurement": "glycan array binding signal (z-score)", "setting": "[6]", "value": -0.004}, {"measurement": "glycan array binding signal (z-score)", "setting": "[7]", "value": -0.438}, {"measurement": "glycan array binding signal (z-score)", "setting": "Gal(b1-3)GlcNAc(b1-2)Man", "value": 0.208}, {"measurement": "glycan array binding signal (z-score)", "setting": "[8]", "value": 0.072}, {"measurement": "glycan array binding signal (z-score)", "setting": "[9]", "value": -0.732}, {"measurement": "glycan array binding signal (z-score)", "setting": "[10]", "value": -0.052}, {"measurement": "glycan array binding signal (z-score)", "setting": "[11]", "value": 0.313}, {"measurement": "glycan array binding signal (z-score)", "setting": "[12]", "value": 0.213}, {"measurement": "glycan array binding signal (z-score)", "setting": "[13]", "value": -0.54}, {"measurement": "glycan array binding signal (z-score)", "setting": "[14]", "value": -0.516}, {"measurement": "glycan array binding signal (z-score)", "setting": "[15]", "value": -0.52}, {"measurement": "glycan array binding signal (z-score)", "setting": "[16]", "value": 1.83}, {"measurement": "glycan array binding signal (z-score)", "setting": "[17]", "value": 0.399}, {"measurement": "glycan array binding signal (z-score)", "setting": "[18]", "value": -0.037}, {"measurement": "glycan array binding signal (z-score)", "setting": "[19]", "value": -0.217}, {"measurement": "glycan array binding signal (z-score)", "setting": "[20]", "value": -0.315}, {"measurement": "glycan array binding signal (z-score)", "setting": "[21]", "value": -0.615}, {"measurement": "glycan array binding signal (z-score)", "setting": "[22]", "value": 0.264}, {"measurement": "glycan array binding signal (z-score)", "setting": "[23]", "value": -0.245}, {"measurement": "glycan array binding signal (z-score)", "setting": "[24]", "value": 0.048}, {"measurement": "glycan array binding signal (z-score)", "setting": "Gal(b1-3)GlcNAc6S", "value": -0.214}, {"measurement": "glycan array binding signal (z-score)", "setting": "[25]", "value": -0.145}, {"measurement": "glycan array binding signal (z-score)", "setting": "[26]", "value": 0.103}, {"measurement": "glycan array binding signal (z-score)", "setting": "[27]", "value": 0.599}, {"measurement": "glycan array binding signal (z-score)", "setting": "[28]", "value": 0.1}]}]}
